# In publication PMC5700166:
# The entries are a selection whose mix differs from that of the whole data set. The list includes weakly bound sequences.
# Columns and labels:
# Assay in all cases: protein-binding microarray (PBM)
# Settings in all cases: PBM: ~300 nM protein, 6 mM HEPES pH 7.8, 80 mM KCl, 0.5 mM EDTA, 0.5 mM EGTA, 6% glycerol, 35 ng/ul poly-dIdC, 1% milk, 1 h, room temperature; Ap Aiptasia and Nv Nematostella (sea anemones) / Co Capsaspora / Aq Amphimedon (sponge) / Dm Drosophila / Hu human; RHD is the Rel homology domain; high values mean tight binding; most listed sequences are background and not binding sites; double strand, one strand shown
# GST-Ap-NF-kB RHD = target: T1, GST-Ap-NF-kB RHD (UniProt A0A913YAJ5)
# T1 sequence: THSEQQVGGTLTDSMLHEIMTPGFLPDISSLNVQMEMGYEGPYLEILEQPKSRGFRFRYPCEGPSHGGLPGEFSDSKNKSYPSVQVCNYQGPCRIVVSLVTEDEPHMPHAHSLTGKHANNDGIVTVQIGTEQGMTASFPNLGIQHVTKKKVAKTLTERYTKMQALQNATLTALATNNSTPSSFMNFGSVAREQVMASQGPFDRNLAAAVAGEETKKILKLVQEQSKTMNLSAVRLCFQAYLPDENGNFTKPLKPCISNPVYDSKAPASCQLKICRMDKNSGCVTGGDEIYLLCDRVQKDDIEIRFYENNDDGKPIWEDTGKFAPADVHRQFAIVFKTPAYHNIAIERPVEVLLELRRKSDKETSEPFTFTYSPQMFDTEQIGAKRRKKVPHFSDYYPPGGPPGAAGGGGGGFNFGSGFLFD
# [1] = target: T2, GST-Nv-NF-kB (Cys allele) (UniProt E5G601)
# T2 sequence: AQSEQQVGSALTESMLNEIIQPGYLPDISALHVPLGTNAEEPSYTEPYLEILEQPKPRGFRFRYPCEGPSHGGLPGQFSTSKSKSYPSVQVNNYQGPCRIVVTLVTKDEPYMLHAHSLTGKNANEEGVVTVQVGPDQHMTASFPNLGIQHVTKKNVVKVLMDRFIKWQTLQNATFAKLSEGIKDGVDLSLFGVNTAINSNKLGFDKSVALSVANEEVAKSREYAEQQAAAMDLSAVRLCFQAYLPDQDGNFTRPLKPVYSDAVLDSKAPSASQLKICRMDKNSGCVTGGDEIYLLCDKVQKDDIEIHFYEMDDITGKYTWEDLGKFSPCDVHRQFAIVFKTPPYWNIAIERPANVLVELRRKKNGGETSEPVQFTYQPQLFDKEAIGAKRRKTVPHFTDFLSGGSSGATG
# GST-Co-NF-kB = target: T3, GST-Co-NF-kB (UniProt F1ARL5)
# T3 sequence: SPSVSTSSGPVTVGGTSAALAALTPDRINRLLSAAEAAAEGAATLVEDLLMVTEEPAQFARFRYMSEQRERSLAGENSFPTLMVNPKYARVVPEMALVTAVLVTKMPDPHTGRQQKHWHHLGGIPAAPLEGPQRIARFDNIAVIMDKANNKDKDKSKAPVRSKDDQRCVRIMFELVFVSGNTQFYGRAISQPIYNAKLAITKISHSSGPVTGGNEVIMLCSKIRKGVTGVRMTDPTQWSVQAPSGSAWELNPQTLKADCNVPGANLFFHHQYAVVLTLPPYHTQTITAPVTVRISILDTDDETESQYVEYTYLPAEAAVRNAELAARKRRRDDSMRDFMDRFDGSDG
# GST-Dm-Relish = target: T4, GST-Dm-Relish (UniProt Q94527)
# T4 sequence: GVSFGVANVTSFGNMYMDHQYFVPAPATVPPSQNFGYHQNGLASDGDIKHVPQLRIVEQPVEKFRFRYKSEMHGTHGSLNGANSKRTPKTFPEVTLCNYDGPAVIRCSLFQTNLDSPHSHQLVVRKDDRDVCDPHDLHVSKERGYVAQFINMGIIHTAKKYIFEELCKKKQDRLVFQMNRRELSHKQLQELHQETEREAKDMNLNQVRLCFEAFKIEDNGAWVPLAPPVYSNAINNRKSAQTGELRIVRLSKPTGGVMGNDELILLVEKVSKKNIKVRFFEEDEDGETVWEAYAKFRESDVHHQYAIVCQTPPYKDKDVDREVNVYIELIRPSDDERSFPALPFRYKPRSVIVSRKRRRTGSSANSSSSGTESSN
# GST-Aq-NF-kB = target: T5, GST-Aq-NF-kB (UniProt A9Y5G7)
# T5 sequence: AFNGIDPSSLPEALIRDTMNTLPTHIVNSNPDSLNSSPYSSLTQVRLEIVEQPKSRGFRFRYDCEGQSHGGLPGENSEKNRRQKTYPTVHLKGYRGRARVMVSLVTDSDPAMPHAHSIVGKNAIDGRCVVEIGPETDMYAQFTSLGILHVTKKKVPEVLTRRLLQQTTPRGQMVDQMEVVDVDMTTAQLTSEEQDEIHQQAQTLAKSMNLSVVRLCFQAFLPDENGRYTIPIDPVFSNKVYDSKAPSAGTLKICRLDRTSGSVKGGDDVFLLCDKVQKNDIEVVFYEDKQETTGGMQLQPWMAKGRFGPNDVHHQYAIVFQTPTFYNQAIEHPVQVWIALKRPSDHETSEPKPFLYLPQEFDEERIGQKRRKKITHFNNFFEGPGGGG
sequence,measurement,setting,value
CCGATTAACATCAACCCTTGAGATGATGTTAATCGGGTCTTGATTCGCTTGACGCTGCTG,binding signal,GST-Ap-NF-kB RHD,0.371 z-score
same,binding signal,[1],-0.404 z-score
same,binding signal,GST-Co-NF-kB,-0.174 z-score
same,binding signal,GST-Dm-Relish,-0.678 z-score
same,binding signal,GST-Aq-NF-kB,-0.254 z-score
CCGATTAACATCAGGATTTTACATGATGTTAATCGGGTCTTGATTCGCTTGACGCTGCTG,binding signal,GST-Ap-NF-kB RHD,-0.176 z-score
same,binding signal,[1],-0.0838 z-score
same,binding signal,GST-Co-NF-kB,-0.256 z-score
same,binding signal,GST-Dm-Relish,3.35 z-score
same,binding signal,GST-Aq-NF-kB,0.547 z-score
CCGATTAACATCAGATACAGGACTGATGTTAATCGGGTCTTGATTCGCTTGACGCTGCTG,binding signal,GST-Ap-NF-kB RHD,0.126 z-score
same,binding signal,[1],-0.125 z-score
same,binding signal,GST-Co-NF-kB,-0.235 z-score
same,binding signal,GST-Dm-Relish,-0.553 z-score
same,binding signal,GST-Aq-NF-kB,-0.318 z-score
CCGATTAACATCAATTGCTTTCTTGATGTTAATCGGGTCTTGATTCGCTTGACGCTGCTG,binding signal,GST-Ap-NF-kB RHD,-0.786 z-score
same,binding signal,[1],-0.206 z-score
same,binding signal,GST-Co-NF-kB,-0.305 z-score
same,binding signal,GST-Dm-Relish,-0.518 z-score
same,binding signal,GST-Aq-NF-kB,-0.561 z-score
CCGATTAACATCAGTAATTTACATGATGTTAATCGGGTCTTGATTCGCTTGACGCTGCTG,binding signal,GST-Ap-NF-kB RHD,-0.851 z-score
same,binding signal,[1],0.0802 z-score
same,binding signal,GST-Co-NF-kB,0.117 z-score
same,binding signal,GST-Dm-Relish,6.73 z-score
same,binding signal,GST-Aq-NF-kB,-0.0854 z-score
CCGATTAACATCATTAGGTCCAGTGATGTTAATCGGGTCTTGATTCGCTTGACGCTGCTG,binding signal,GST-Ap-NF-kB RHD,-0.183 z-score
same,binding signal,[1],-0.388 z-score
same,binding signal,GST-Co-NF-kB,0.187 z-score
same,binding signal,GST-Dm-Relish,-0.313 z-score
same,binding signal,GST-Aq-NF-kB,-0.287 z-score
